Assay results as given in the RNAGym collection of RNA variant scans (doi:10.7554/elife.90254).
Read counts are not given, so values of variants with three or more changes are uncertain.

B1: LINE1-mini (parent)
chain: GGCAGAGCUCAACACAGCGUGGCAAAGUGGCUGUGGCUAGACUGCC

Variants of: B1
Experiment: self-cleavage, relative activity (ratio to wild type); higher = more cleavage; in vitro, sequencing; the parent is a self-cleaving ribozyme

| Variant | self-cleavage |
| --- | --- |
| G19A G30A U43C | 0.71 |
| G19U G27A G30C G35U C42G | 0.07 |
| G19U A26U C37A | 0.03 |
| U20A A26C U32G G44A | 0.07 |
| G19A G36C C46U | 0.06 |
| G19C A41C C42U G44C | 0.01 |
| C18G U34A A41G U43C | 0 |
| G19U G27C G33U | 0.05 |
| C18U C37G U38C | 0.01 |
| G19U G22C C23A G40A | 0.1 |
| G19U U20A A39C | 0.03 |
| G19A G22U A26C | 1.99 |
| U20A C23A G40C | 0.22 |
| G19U G27U C42U U43G | 0.01 |
| U20A G21A C23A G36C U43G | 0 |
| C18U U20A C37G | 0.01 |
| G19C C23U A25G C37U C46U | 0 |
| C18U G19U C31G A39G | 0.02 |
| G19C G22U U28G | 0.38 |
| G19C G21U A25U U34C | 0.23 |
| G19A G30U A41C | 0.04 |
| G19C C37U U38C | 0.01 |
| G19U G21A G35U | 0.21 |
| G19U G27C G44U | 0.15 |

| Variant | self-cleavage |
| --- | --- |
| G19A A25G G27A G29C U34A C37G | 0.04 |
| C18U A26C U34C | 0.05 |
| G19A G22C G30U G44U | 0.1 |
| G19A G21A A26G U38C | 0.63 |
| C18G U28C G29U | 0.87 |
| U20A A24U G27A C37A | 0.01 |
| G19A A26U U34G | 0.39 |
| G19A G29A C31U G35U | 0.04 |
| U20A A41U G44U | 0.12 |
| C18G G22C U38G C46A | 0.02 |
| G19U C23G U38C C42U | 0.42 |
| C18G G22C C31A G40C C45A | 0.01 |
| U20A A39U C46A | 0.03 |
| C18U A26G U28G G30A C31A | 0.26 |
| C18G G22C A39G | 0.11 |
| C18U C42A C45A | 0 |
| C18G G19U A39C | 0.27 |
| C18G G33U G44C C46U | 0.02 |
| G19C C42G G44U C45U | 0 |
| C18U U20C A24G U28G G29A | 0.38 |
| G19U G29U U38A | 0.13 |
| G19U G21U G27U G30A C31A | 0.08 |
| C18U A25G G27A U32C C45U | 0.01 |
| C18G U34C A41C | 0.07 |

| Variant | self-cleavage |
| --- | --- |
| C18U G35A G36C U38G | 0.02 |
| C18G U28C U43C | 0.06 |
| G19A C37U G40C | 0.06 |
| G19U A26C G30C A39C | 0.22 |
| C18G G36U C46U | 0.03 |
| G19A G22A C23U A24U U28C G36C | 0.27 |
| G19U G27C C46U | 0.49 |
| G19A G21A G22C G35A | 0.1 |
| G19U A24C U32G | 0.01 |
| C18U A26U G36U | 0.05 |
| C18G G30U G35C C46G | 0.01 |
| G19C C23U G27C G35A U38C G40U | 0.09 |
| G19C C31G G44C | 0.16 |
| G19C G30U U32A A41C | 0.03 |
| G19U G27C G30U | 0.03 |
| C18G G19C U28C G29A | 1.13 |
| U20A G22C A25G A41U | 0.08 |
| G19U C37G U38C | 0.02 |
| C18U C31U C42U | 0.07 |
| G19C C37U C42G | 0 |
| C18U G27U C42A | 0.05 |
| C18U G27A G36U | 0.04 |
| G19A G29U G35A | 0.36 |
| C18U C31U C45U | 0.14 |

| Variant | self-cleavage |
| --- | --- |
| U20A C23U G29U C31U C37A | 0.01 |
| G19A U20G A24C G27A C31A G36U | 0.02 |
| C18U G30C A39C | 0.02 |
| C18U G27A G35U G40C | 0 |
| C18U G19U A24G C45U C46G | 0.02 |
| G19U C23U G27A G36U | 0.07 |
| G19A C23U G27A G29U C31U | 0.77 |
| G19A U28A C37G | 0.04 |
| G19A U32A G36U G40A | 0.04 |
| C18G G33A G35A | 0.03 |
| G19C A24U G40C | 0.12 |
| C18U G19U G21C | 0.51 |
| G19A C31A G36A | 0.11 |
| C18U A24U G29U | 1.2 |
| C18U C23G G40C | 0.05 |
| C18U G19A G27U G40U | 0.01 |
| C18U G21C C23A C37U G44C | 0.06 |
| C18U A25C G27C U32A | 0.02 |
| G19A U20A C23A G29U G44C | 0.07 |
| G19A G29U C42U | 0.37 |
| C18G G29U G36C A41U U43C | 0.08 |
| G19C G27A G36A A39G | 0.03 |
| G19C G22A A41G | 0.04 |
| C18G G21U G30C G35U | 0.04 |

| Variant | self-cleavage |
| --- | --- |
| G19C G36U U43A | 0.01 |
| G19A G22C G27U U28A | 0.62 |
| G19C A24U G35A | 0.11 |
| G19C G27U G40U C42G | 0.02 |
| G19A G29U G30C | 0.46 |
| G19A G29A U34A A39G | 0.09 |
| C18U U20G C31A U38C U43C | 0 |
| C18G G30U C31U U32A | 0.03 |
| G19C A25U C37A C42U | 0.02 |
| G19A G35U C45A | 1.41 |
| U20A C31G C46G | 0.03 |
| G19C A24G U34G C45U | 0.38 |
| G19A A24G C46A | 0.91 |
| G19A C31A G33A G35A | 0.14 |
| U20A G22U G30C C31U U34A C37U A39G G40A | 0.77 |
| G19A A41U U43C | 0.1 |
| C18U G21C C23G | 0.27 |
| C18U G21U G36A | 0.3 |
| G19U C31A C42A | 0.04 |
| C18U G33A C45G | 0.03 |
| G19U A24G U28G U38C | 0.28 |
| G19U U32A A39G | 0.02 |
| C18U C23A G29C | 0.22 |
| C18G G29C C45A | 0.29 |

| Variant | self-cleavage |
| --- | --- |
| C18U A26G G35A C45U | 0.03 |
| G19U U20A A24U A39G | 0.08 |
| C18G G29A G35A | 0.11 |
| C18U G36U G40C | 0.11 |
| G19A G27C G30U U34A G36C | 0.08 |
| C18U U20G G33A G40C | 0.02 |
| C18G G21C A24U A39G | 0.03 |
| G19U G30U C42U U43G C45G | 0.1 |
| G19C G30U G44C C45U | 0.1 |
| C18G C45A C46G | 0.02 |
| U20A G21C G44A C46U | 0.04 |
| C18U U34C U38A | 0.03 |
| U20A G22A C37A | 0.02 |
| G19U A26U G30C | 0.43 |
| C18U A25U C31G C45A | 0.02 |
| U20A G21C U32G C37A | 0.02 |
| G19C C23U A26G G33A A39U | 0.04 |
| C18U G19U U20A G22A G40C G44U | 0.03 |
| G19A A24U A39U | 0.78 |
| G19A A25U G35U | 0.06 |
| G19A G33U A41U | 0.07 |
| G19C A25C U38C | 0.09 |
| G19U U20A G21A U28A G40U C46U | 0.01 |
| G19C G22C C23U | 0.3 |

| Variant | self-cleavage |
| --- | --- |
| G19U G22U A26G | 0.6 |
| G19A C23U G27U U32G | 0.72 |
| C18G G35C C45U | 0.07 |
| G19U U20C A39C | 0.01 |
| C18G C23U G36A C42G | 0.02 |
| G19A G30A G35U | 0.22 |
| G19A G21C G27U | 0.51 |
| G19U A25U G30A | 1.02 |
| G19A A24C A39C | 0.27 |
| C18U C23A C37G | 0.16 |
| U20A G27A A41C C45U | 0.03 |
| G19C A39U G44U | 0.1 |
| C18G U38C G44C | 0.04 |
| C18U G19A A26C C37A C46U | 0.05 |
| C18U G22U G35U C37G | 0.05 |
| C18U G22U C23U C31A G33U | 0.02 |
| C18U A24C U34A G36C | 0.05 |
| C18G U20C A24U | 0.01 |
| G19U U38A A39C | 0.05 |
| G19U G29U G30A | 1.52 |
| G19C G21U A26C G33C | 0.08 |
| C18G G21A C37U | 0.09 |
| G19A G40U G44A | 0.05 |
